Laboratory results reported in patent publication US20210403583A1 (ELIXIRON IMMUNOTHERAPEUTICS HONG KONG, published 2021).

T1: cynomolgus CSF1R expressed on 293F cells (cynomolgus monkey, UniProt P07333 20-972 (human entry))
T1 construct: also called cynoCSF1R
T1 chain: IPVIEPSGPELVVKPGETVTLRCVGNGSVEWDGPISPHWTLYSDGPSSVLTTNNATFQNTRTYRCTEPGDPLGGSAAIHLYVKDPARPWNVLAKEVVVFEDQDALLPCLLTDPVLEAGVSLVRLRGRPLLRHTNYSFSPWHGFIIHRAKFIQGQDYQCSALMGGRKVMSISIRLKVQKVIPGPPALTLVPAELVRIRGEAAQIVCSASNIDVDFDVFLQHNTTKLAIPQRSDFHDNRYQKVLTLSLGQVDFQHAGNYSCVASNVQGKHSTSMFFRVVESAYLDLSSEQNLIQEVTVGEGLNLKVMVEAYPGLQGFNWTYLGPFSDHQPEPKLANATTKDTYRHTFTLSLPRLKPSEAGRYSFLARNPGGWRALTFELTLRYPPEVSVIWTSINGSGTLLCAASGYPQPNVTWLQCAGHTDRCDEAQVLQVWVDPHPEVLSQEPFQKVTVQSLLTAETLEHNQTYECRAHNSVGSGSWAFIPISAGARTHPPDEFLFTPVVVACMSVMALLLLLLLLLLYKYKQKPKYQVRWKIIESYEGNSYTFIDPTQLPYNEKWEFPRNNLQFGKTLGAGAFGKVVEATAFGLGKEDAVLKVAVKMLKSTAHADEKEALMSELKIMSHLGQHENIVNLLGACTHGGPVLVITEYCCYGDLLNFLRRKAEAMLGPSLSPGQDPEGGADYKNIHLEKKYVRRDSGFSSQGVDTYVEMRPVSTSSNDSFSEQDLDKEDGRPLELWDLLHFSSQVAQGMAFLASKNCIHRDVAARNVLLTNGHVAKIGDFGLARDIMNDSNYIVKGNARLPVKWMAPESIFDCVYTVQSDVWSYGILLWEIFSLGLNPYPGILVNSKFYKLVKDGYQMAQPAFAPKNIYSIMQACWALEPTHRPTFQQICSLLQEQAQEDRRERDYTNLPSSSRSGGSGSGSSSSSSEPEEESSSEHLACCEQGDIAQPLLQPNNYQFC


Columns and labels:
[1] = target: T2, recombinant human CSF1R-Fc fusion protein (human, UniProt P07333 in part); test: ELISA, coated human CSF1R-Fc (dimer)
T2 construct: probably the same protein; also called CSF1R-Fc (dimer); not shown: Fc part
Experimental: (§1) Materials and methods: Recombinant human CSF1R-His (Biolegend), or CSF1R-Fc fusion protein, were immobilized on 96 well microtiter plate at a concentration of 1 μg/mL in Coating Solution (SeraCare) overnight at 4° C. The wells were washed with wash solution (0.05% Tween20 in imidazole-buffered saline) and blocked with 1% BSA. Serial dilutions of the antibodies were added to wells. After incubation at 3TC for 1 h, the wells were washed with wash solution. Peroxidase-conjugated goat anti-human kappa light chain antibody (Bethyl) was applied to each well at 3TC for 1 h incubation. After washing, the wells were developed with TMB substrate for 5-10 min at RT and then stopped with 1 N HCl. Thereafter absorbance was measured at 450 nm and 650 nm. The EC50 values were calculated through GraphPad Prism7.

[2] = target: T3, human CSF1R expressed on cells (293F/huCSF1R stable cells; AML5 cells; human monocytes and macrophages) (human, UniProt P07333 20-972); test: cell-based or functional assay
[3] = target: T4, recombinant human CSF1R-His (Biolegend) (human, UniProt P07333 in part, limits assumed); test: ELISA, coated human CSF1R-His (monomer)
T4 construct: Bought protein; also called CSF1R-His (monomer); hu-CSF1R; not shown: His tag
Experimental: as §1

[4] = target: T1, cynomolgus CSF1R expressed on 293F cells; test: flow cytometry titration on 293F cells overexpressing cynomolgus CSF1R, anti-human IgG-Alexa Fluor 647
Text: Materials and methods: The gene segments encoding full-length human CSF1R or cynomolgus CSF1R were obtained using Thermo gene synthesis service and cloned in a mammalian expression vector pCDNA3.4. […] After washing with FACS buffer (2%FBS in PBS), the cells were stained with anti-human IgG-Alexa Fluor 647 and analyzed by Attune N×T Flow Cytometer (Thermo Scientific).

[5] = target: T2, recombinant human CSF1R-Fc fusion …; test: ELISA, coated human CSF1R-Fc
Experimental: Materials and methods: Recombinant human CSF1R-Fc, or mouse CSF1R-Fc (Sino Biological) were immobilized on 96 well microtiter plate at a concentration of 1 μg/mL in Coating Solution (SeraCare) overnight at 4° C. The wells were washed with wash solution (0.05% Tween20 in imidazole-buffered saline) and blocked with 1% BSA. Serial dilutions of the anti-CSF1R/IL-10 fusion proteins were added to wells. After incubation at 3TC for 1 h, the wells were washed with wash solution. To detect chimeric Ab/IL10 fusions, peroxidase-conjugated goat anti-human kappa light chain antibody (Bethyl) was applied to each well at 3TC for 1 h incubation. To detect AB98 or AB98/1110 fusions, peroxidase-conjugated Goat anti-mouse IgG Fab antibody (Jackson immunoresearch) was applied to each well at 3TC for 1 h incubation. After washing, the wells were developed with TMB substrate for 5-10 min at RT and then stopped with 1 N HCl. Thereafter absorbance was measured at 450 nm and 650 nm.

[6] = target: T3, human CSF1R expressed on cells …; test: cell-based or functional assay; remark: listed apart in the source

Row | EC50 [1] [nM] | IC50 (M), CSF1-dependent AML5 cell proliferation [2] [M] | EC50 [3] [nM] | binding result [4] | EC50 [5] [nM] | IC50 (M), inhibition of AML5 cell proliferation (CSF1-dependent) [6] [M] | Binder
1 | 0.145 | 5.71e-10 | 0.211 | – | – | – | humanized anti-CSF1R antibody 6D4.hu22 (antibody, human IgG1, kappa, Humanized version of 6D4) heavy: QIQLVQSGAEVKKPGASVKVSCKASGYSFTGYNMNWVRQAPGKSLEWIGDINPYYGATTYNQKFKGRVTLTVDTSTSTAYMELSSLRSEDTAVYYCARRGDYGDYEGWYFDVWGQGTMVTVSS[letters of human IgG1 constant region left out] light: DIQMTQSPSSLSASVGDRVTITCHASQNINVWLSWYQQKPGNAPKLLIYKASNLHTGVPSRFSGSGSGTDFTLTISSLQPEDIATYYCQQGQSYPYTFGGGTKLEIKRTVAAPSVFIFPPSDEQLKSGTASVVCLLNNFYPREAKVQWKVDNALQSGNSQESVTEQDSKDSTYSLSSTLTLSKADYEKHKVYACEVTHQGLSSPVTKSFNRGEC
2 | – | – | – | binds | 0.271 | 2.98e-09 | humanized anti-CSF1R/IL10 fusion protein 6D4.hu22/IL10 (antibody, human IgG1, kappa, Antibody-cytokine fusion: human IL10 fused by a linker to the C-terminus of the heavy chain) heavy: QIQLVQSGAEVKKPGASVKVSCKASGYSFTGYNMNWVRQAPGKSLEWIGDINPYYGATTYNQKFKGRVTLTVDTSTSTAYMELSSLRSEDTAVYYCARRGDYGDYEGWYFDVWGQGTMVTVSS[letters of human IgG1 constant region left out]LGGGGSGGGGSGGGGSPGQGTQSENSCTHFPGNLPNMLRDLRDAFSRVKTFFQMKDQLDNLLLKESLLEDFKGYLGCQALSEMIQFYLEEVMPQAENQDPDIKAHVNSLGENLKTLRLRLRRCHRFLPCENKSKAVEQVKNAFNKLQEKGIYKAMSEFDIFINYIEAYMTMKIRN light: DIQMTQSPSSLSASVGDRVTITCHASQNINVWLSWYQQKPGNAPKLLIYKASNLHTGVPSRFSGSGSGTDFTLTISSLQPEDIATYYCQQGQSYPYTFGGGTKLEIKRTVAAPSVFIFPPSDEQLKSGTASVVCLLNNFYPREAKVQWKVDNALQSGNSQESVTEQDSKDSTYSLSSTLTLSKADYEKHKVYACEVTHQGLSSPVTKSFNRGEC
3 | 0.139 | 5.97e-10 | 0.203 | – | – | – | humanized anti-CSF1R antibody 6D4.hu41 (antibody, human IgG1, kappa, Humanized version of 6D4) heavy: EIQLQQSGAEVKKPGASVKISCEASGYSFTGYNMNWVKQAPGKSLEWIGDINPYYGATTYNQKFKGRATLTVDTSTSTAYMELSSLRSEDTAVYYCARRGDYGDYEGWYFDVWGQGTMVTVSS[letters of human IgG1 constant region left out] light: DIQMTQSPSSLSASVGDRVTITCHASQNINVWLSWYQQKPGNAPKLLIYKASNLHTGVPSRFSGSGSGTDFTFTISSLQPEDIATYYCQQGQSYPYTFGGGTKLEIKRTVAAPSVFIFPPSDEQLKSGTASVVCLLNNFYPREAKVQWKVDNALQSGNSQESVTEQDSKDSTYSLSSTLTLSKADYEKHKVYACEVTHQGLSSPVTKSFNRGEC
4 | – | – | – | binds | 0.22 | 3.46e-09 | humanized anti-CSF1R/IL10 fusion protein 6D4.hu41/IL10 (antibody, human IgG1, kappa, Antibody-cytokine fusion: human IL10 fused by a linker to the C-terminus of the heavy chain) heavy: EIQLQQSGAEVKKPGASVKISCEASGYSFTGYNMNWVKQAPGKSLEWIGDINPYYGATTYNQKFKGRATLTVDTSTSTAYMELSSLRSEDTAVYYCARRGDYGDYEGWYFDVWGQGTMVTVSS[letters of human IgG1 constant region left out]LGGGGSGGGGSGGGGSPGQGTQSENSCTHFPGNLPNMLRDLRDAFSRVKTFFQMKDQLDNLLLKESLLEDFKGYLGCQALSEMIQFYLEEVMPQAENQDPDIKAHVNSLGENLKTLRLRLRRCHRFLPCENKSKAVEQVKNAFNKLQEKGIYKAMSEFDIFINYIEAYMTMKIRN light: DIQMTQSPSSLSASVGDRVTITCHASQNINVWLSWYQQKPGNAPKLLIYKASNLHTGVPSRFSGSGSGTDFTFTISSLQPEDIATYYCQQGQSYPYTFGGGTKLEIKRTVAAPSVFIFPPSDEQLKSGTASVVCLLNNFYPREAKVQWKVDNALQSGNSQESVTEQDSKDSTYSLSSTLTLSKADYEKHKVYACEVTHQGLSSPVTKSFNRGEC
